According to US11279689B2, “1-(3-(6-(3-hydroxynaphthalen-1-yl)benzofuran-2-yl)azetidin-1 yl)prop-2-en-1-one derivatives and similar compounds as KRAS G12C modulators for treating cancer” (Araxes Pharma LLC, priority 2017, dated 2022):
The name of at least one read-out is uncertain.

The compounds below were run against T1, KRAS G12C 1-169, his-tagged protein, GDP-loaded (Homo sapiens, UniProt P01116, G12C) (assay: Biochemical assay: covalent binding (modification %) to KRAS G12C by mass spectrometry). Conditions: 2 hour incubation period at 10 μM or 8 μM concentration.
T1 construct: KRAS G12C 1-169, his-tagged protein, GDP-loaded

Row | Compound | Binding %
1 | C=CC(=O)N1CC(c2nc3c(Nc4c(C)ccc5[nH]ncc45)cncc3[nH]2)C1 [Compound 69, 1-(3-(7-(5-methyl-1H-indazol-4-ylamino)-3H-imidazo[4,5-c]pyridin-2-yl)azetidin-1-yl)prop-2-en-1-one] | + (+ indicates binding activity up to 10%)
2 | C=CC(=O)N1CCC(n2ccc3cc(-c4c(C)ccc5[nH]ncc45)ccc32)CC1 [Compound 70, 1-(4-(5-(5-methyl-1H-indazol-4-yl)-1H-indol-1-yl)piperidin-1-yl)prop-2-en-1-one] | + (+ indicates binding activity up to 10%)
3 | C=CC(=O)N1CCC(n2ccc3cc(-c4cc(O)cc5ccccc45)ccc32)CC1 [Compound 71, 1-(4-(5-(3-hydroxynaphthalen-1-yl)-1H-indol-1-yl)piperidin-1-yl)prop-2-en-1-one] | + (+ indicates binding activity up to 10%)
4 | C=CC(=O)N1CCCC(n2ccc3cc(-c4cc(O)cc5ccccc45)ccc32)C1 (stereo not drawn) [Compound 72, 1-(3-(5-(3-hydroxynaphthalen-1-yl)-1H-indol-1-yl)piperidin-1-yl)prop-2-en-1-one] | + (+ indicates binding activity up to 10%)
5 | C=CC(=O)N1CCC(n2ccc3cc(-c4c(C)ccc5[nH]ncc45)ccc32)C1 (stereo not drawn) [Compound 73, 1-(3-(5-(5-methyl-1H-indazol-4-yl)-1H-indol-1-yl)pyrrolidin-1-yl)prop-2-en-1-one] | + (+ indicates binding activity up to 10%)
6 | C=CC(=O)N1CC(n2cc(C#N)c3cc(-c4cccc5ccccc45)ccc32)C1 [Compound 74, 1-(1-acryloylazetidin-3-yl)-5-(naphthalen-1-yl)-1H-indole-3-carbonitrile] | + (+ indicates binding activity up to 10%)
7 | C=CC(=O)N1CC(n2cc(C#N)c3cc(-c4c(O)cccc4F)ccc32)C1 [Compound 75, 1-(1-acryloylazetidin-3-yl)-5-(2-fluoro-6-hydroxyphenyl)-1H-indole-3-carbonitrile] | + (+ indicates binding activity up to 10%)
8 | C=CC(=O)N1CCCC(n2ccc3cc(-c4c(C)ccc5[nH]ncc45)ccc32)C1 (stereo not drawn) [Compound 76, 1-(3-(5-(5-methyl-1H-indazol-4-yl)-1H-indol-1-yl)piperidin-1-yl)prop-2-en-1-one] | + (+ indicates binding activity up to 10%)
9 | C=CC(=O)N1CC(c2cc3c(C(N)=O)cc(-c4cc(O)cc5ccccc45)cc3[nH]2)C1 [Compound 77, 2-(1-acryloylazetidin-3-yl)-6-(3-hydroxynaphthalen-1-yl)-1H-indole-4-carboxamide] | +++ (+++ indicates binding activity greater than 50%)
10 | C=CC(=O)N1CC(n2ccc3c(OC)c(-c4cc(O)cc5ccccc45)ccc32)C1 [Compound 78, 1-(3-(5-(3-hydroxynaphthalen-1-yl)-4-methoxy-1H-indol-1-yl)azetidin-1-yl)prop-2-en-1-one] | +++ (+++ indicates binding activity greater than 50%)
11 | C=CC(=O)N1CCC(n2ccc3cc(-c4cc(O)cc5ccccc45)ccc32)C1 (stereo not drawn) [Compound 79, 1-(3-(5-(3-hydroxynaphthalen-1-yl)-1H-indol-1-yl)pyrrolidin-1-yl)prop-2-en-1-one] | ++ (++ indicates binding activity from 10 to 50%)
12 | C=CC(=O)NC12CC(Cn3c(C#N)cc4c(C)c(-c5cc(O)cc6ccccc56)ccc43)(C1)C2 [Compound 80, N-(3-((2-cyano-5-(3-hydroxynaphthalen-1-yl)-4-methyl-1H-indol-1-yl)methyl)bicyclo[1.1.1]pentan-1-yl)acrylamide] | + (+ indicates binding activity up to 10%)
13 | C=CC(=O)N1CC(n2c(C#N)cc3c(C)c(-c4cc(O)cc5ccccc45)ccc32)C1 [Compound 81, 1-(1-acryloylazetidin-3-yl)-5-(3-hydroxynaphthalen-1-yl)-4-methyl-1H-indole-2-carbonitrile] | +++ (+++ indicates binding activity greater than 50%)
14 | C=CC(=O)N1CC(n2c(C#N)cc3c(OC)c(-c4c(C)ccc5[nH]ncc45)ccc32)C1 [Compound 82, 1-(1-acryloylazetidin-3-yl)-4-methoxy-5-(5-methyl-1H-indazol-4-yl)-1H-indole-2-carbonitrile] | + (+ indicates binding activity up to 10%)
15 | C=CC(=O)NC12CC(Cn3ccc4cc(-c5c(C)ccc6[nH]nc(N)c56)ccc43)(C1)C2 [Compound 83, N-(3-((5-(3-amino-5-methyl-1H-indazol-4-yl)-1H-indol-1-yl)methyl)bicyclo[1.1.1]pentan-1-yl)acrylamide] | + (+ indicates binding activity up to 10%)
16 | C=CC(=O)N1CCC(n2cc(C#N)c3cc(-c4c(C)ccc5[nH]ncc45)ccc32)CC1 [Compound 84, 1-(1-acryloylpiperidin-4-yl)-5-(5-methyl-1H-indazol-4-yl)-1H-indole-3-carbonitrile] | + (+ indicates binding activity up to 10%)
17 | C=CC(=O)N1CCC(n2cc(C#N)c3cc(-c4cc(O)cc5ccccc45)ccc32)CC1 [Compound 85, 1-(1-acryloylpiperidin-4-yl)-5-(3-hydroxynaphthalen-1-yl)-1H-indole-3-carbonitrile] | ++ (++ indicates binding activity from 10 to 50%)

Row | Compound | Binding %
18 | C=CC(=O)N1CC(n2c(C#N)cc3c(C)c(-c4c(C)ccc5[nH]nc(N)c45)ccc32)C1 [Compound 86, 1-(1-acryloylazetidin-3-yl)-5-(3-amino-5-methyl-1H-indazol-4-yl)-4-methyl-1H-indole-2-carbonitrile] | ++ (++ indicates binding activity from 10 to 50%)
19 | C=CC(=O)N1CC(n2ccc3c(Cl)c(-c4cc(O)cc5ccccc45)ccc32)C1 [Compound 87, 1-(3-(4-chloro-5-(3-hydroxynaphthalen-1-yl)-1H-indol-1-yl)azetidin-1-yl)prop-2-en-1-one] | +++ (+++ indicates binding activity greater than 50%)
20 | C=CC(=O)N1CC(n2cc(C#N)c3cc(-c4c(C)ccc5[nH]nc(N)c45)ccc32)C1 [Compound 88, 1-(1-acryloylazetidin-3-yl)-5-(3-amino-5-methyl-1H-indazol-4-yl)-1H-indole-3-carbonitrile] | ++ (++ indicates binding activity from 10 to 50%)
21 | C=CC(=O)N1CCC(n2cc(C#N)c3cc(-c4cc(O)cc5ccccc45)ccc32)C1 (stereo not drawn) [Compound 89, 1-(1-acryloylpyrrolidin-3-yl)-5-(3-hydroxynaphthalen-1-yl)-1H-indole-3-carbonitrile] | ++ (++ indicates binding activity from 10 to 50%)
22 | C=CC(=O)N1CC(n2ccc3cc(-c4cc(O)cc5ccccc45)c(C)cc32)C1 [Compound 90, 1-(3-(5-(3-hydroxynaphthalen-1-yl)-6-methyl-1H-indol-1-yl)azetidin-1-yl)prop-2-en-1-one] | +++ (+++ indicates binding activity greater than 50%)
23 | C=CC(=O)N1CCC(n2cnc3ccc(-c4c(C)ccc5[nH]ncc45)cc32)CC1 [Compound 91, 1-(4-(6-(5-methyl-1H-indazol-4-yl)-1H-benzo[d]imidazol-1-yl)piperidin-1-yl)prop-2-en-1-one] | + (+ indicates binding activity up to 10%)
24 | C=CC(=O)N1CCC(n2cnc3ccc(-c4cc(O)cc5ccccc45)cc32)CC1 [Compound 92, 1-(4-(6-(3-hydroxynaphthalen-1-yl)-1H-benzo[d]imidazol-1-yl)piperidin-1-yl)prop-2-en-1-one] | + (+ indicates binding activity up to 10%)
25 | C=CC(=O)N1CC(n2cnc3ccc(-c4cc(O)cc5ccccc45)cc32)C1 [Compound 93, 1-(3-(6-(3-hydroxynaphthalen-1-yl)-1H-benzo[d]imidazol-1-yl)azetidin-1-yl)prop-2-en-1-one] | + (+ indicates binding activity up to 10%)
26 | C=CC(=O)N1CCC(n2cnc3ccc(-c4c(C)ccc5[nH]ncc45)cc32)C1 (stereo not drawn) [Compound 94, 1-(3-(6-(5-methyl-1H-indazol-4-yl)-1H-benzo[d]imidazol-1-yl)pyrrolidin-1-yl)prop-2-en-1-one] | + (+ indicates binding activity up to 10%)
27 | C=CC(=O)N1CCC(n2cnc3ccc(-c4cc(O)cc5ccccc45)cc32)C1 (stereo not drawn) [Compound 95, 1-(3-(6-(3-hydroxynaphthalen-1-yl)-1H-benzo[d]imidazol-1-yl)pyrrolidin-1-yl)prop-2-en-1-one] | + (+ indicates binding activity up to 10%)
28 | C=CC(=O)N1CC(n2cnc3ccc(-c4c(C)ccc5[nH]ncc45)cc32)C1 [Compound 96, 1-(3-(6-(5-methyl-1H-indazol-4-yl)-1H-benzo[d]imidazol-1-yl)azetidin-1-yl)prop-2-en-1-one] | + (+ indicates binding activity up to 10%)
29 | C=CC(=O)N1CC(n2cc(C#N)c3cc(-c4c(C)ccc5[nH]ncc45)c(Cl)cc32)C1 [Compound 97, 1-(1-acryloylazetidin-3-yl)-6-chloro-5-(5-methyl-1H-indazol-4-yl)-1H-indole-3-carbonitrile] | ++ (++ indicates binding activity from 10 to 50%)
30 | C=CC(=O)N1CCC(n2cc(C#N)c3cc(-c4c(C)ccc5[nH]ncc45)ccc32)C1 (stereo not drawn) [Compound 98, 1-(1-acryloylpyrrolidin-3-yl)-5-(5-methyl-1H-indazol-4-yl)-1H-indole-3-carbonitrile] | + (+ indicates binding activity up to 10%)
31 | C=CC(=O)N1CCC(n2cnc3cc(-c4c(C)ccc5[nH]ncc45)ccc32)CC1 [Compound 99, 1-(4-(5-(5-methyl-1H-indazol-4-yl)-1H-benzo[d]imidazol-1-yl)piperidin-1-yl)prop-2-en-1-one] | + (+ indicates binding activity up to 10%)
32 | C=CC(=O)N1CCC(n2cnc3ccc(-c4c(O)cccc4F)cc32)CC1 [Compound 100, 1-(4-(6-(2-fluoro-6-hydroxyphenyl)-1H-benzo[d]imidazol-1-yl)piperidin-1-yl)prop-2-en-1-one] | + (+ indicates binding activity up to 10%)
33 | C=CC(=O)N1CCC(n2cnc3ccc(-c4c(O)cccc4F)cc32)C1 (stereo not drawn) [Compound 101, 1-(3-(6-(2-fluoro-6-hydroxyphenyl)-1H-benzo[d]imidazol-1-yl)pyrrolidin-1-yl)prop-2-en-1-one] | + (+ indicates binding activity up to 10%)
